# Data taken from article PMC4336329 (PLoS ONE, 2015).
# Screen size: about 310,000 compounds; about 14,000 (4.5%) showed an effect of 50% or more. Effects have a minus sign here. The list shows a part of the results.
# Molecular target: human ether-à-go-go-related gene (hERG) potassium channel (human, UniProt Q12809)
# Assay: primary screen, population patch clamp on CHO cells stably expressing hERG
# 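Note: peak tail current of the secondary pulse compared with the same well before compound.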
# Sequence of human ether-à-go-go-related gene (hERG) potassium channel (Q12809 whole entry, looked up): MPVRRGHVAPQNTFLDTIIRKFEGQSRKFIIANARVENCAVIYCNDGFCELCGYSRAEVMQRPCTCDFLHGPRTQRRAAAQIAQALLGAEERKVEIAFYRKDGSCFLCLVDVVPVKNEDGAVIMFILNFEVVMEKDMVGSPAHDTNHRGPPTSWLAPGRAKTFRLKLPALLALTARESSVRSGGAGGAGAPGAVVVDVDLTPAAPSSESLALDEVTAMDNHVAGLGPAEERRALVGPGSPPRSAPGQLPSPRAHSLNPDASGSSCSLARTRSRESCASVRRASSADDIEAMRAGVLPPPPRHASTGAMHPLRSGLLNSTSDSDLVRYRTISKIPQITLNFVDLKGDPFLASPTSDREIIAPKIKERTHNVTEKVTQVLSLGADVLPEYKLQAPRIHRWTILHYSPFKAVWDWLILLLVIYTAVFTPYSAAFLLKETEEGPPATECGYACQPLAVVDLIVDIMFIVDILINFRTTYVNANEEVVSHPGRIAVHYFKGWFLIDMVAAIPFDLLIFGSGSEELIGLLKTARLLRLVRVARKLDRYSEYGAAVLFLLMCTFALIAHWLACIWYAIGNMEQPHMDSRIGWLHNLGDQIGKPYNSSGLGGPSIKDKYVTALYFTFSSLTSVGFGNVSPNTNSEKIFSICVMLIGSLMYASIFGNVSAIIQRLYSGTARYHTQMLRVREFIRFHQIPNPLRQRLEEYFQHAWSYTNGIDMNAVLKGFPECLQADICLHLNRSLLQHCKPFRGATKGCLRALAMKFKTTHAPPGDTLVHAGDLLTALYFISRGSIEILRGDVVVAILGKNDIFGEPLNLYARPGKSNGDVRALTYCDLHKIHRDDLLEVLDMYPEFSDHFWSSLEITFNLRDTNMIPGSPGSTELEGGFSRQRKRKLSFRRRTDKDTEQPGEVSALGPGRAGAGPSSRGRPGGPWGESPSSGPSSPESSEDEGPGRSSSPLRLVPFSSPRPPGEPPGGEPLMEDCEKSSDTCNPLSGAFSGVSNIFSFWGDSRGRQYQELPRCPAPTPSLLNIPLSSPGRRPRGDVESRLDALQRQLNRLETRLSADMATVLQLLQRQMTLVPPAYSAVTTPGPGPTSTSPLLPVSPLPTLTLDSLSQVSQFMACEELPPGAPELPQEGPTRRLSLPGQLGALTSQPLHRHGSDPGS
row,SMILES,"hERG current change (%, negative = inhibition) at 10uM"
1,COc1ccc(N2CCN(C(=O)C3CCCN(S(=O)(=O)c4ccc5c(c4)oc(=O)n5C)C3)CC2)cc1 (stereo not drawn),4.47%
2,CCOC(=O)c1ccccc1NC(=O)CN(c1ccccc1OC)S(C)(=O)=O,0.428%
3,CN1C[C@H](CO)C=C2c3cccc4[nH]cc(c34)C[C@H]21,4.32%
4,CCOc1nc(CC(C)C)c2c(c1C#N)CC(C)(C)OC2,1.14%
5,Cn1c(=O)oc2cc(S(=O)(=O)N3CCN(c4ccc(F)cc4)CC3)ccc21,-12.5%
6,Cc1ccc(OCC(=O)Nc2ccc(Cl)cc2)c([N+](=O)[O-])n1,-13.4%
7,COc1ccc(OC)c(C2C(C(=O)c3cccs3)=C(O)C(=O)N2CCN(C)C)c1 (stereo not drawn),13.3%
8,CN1CCN(S(=O)(=O)CC2(C)C3CCC2(C)C(=O)C3Br)CC1 (stereo not drawn),14.7%
9,CC1=CC(C)(C)Nc2ccccc21.Cl,12.1%
10,COc1cccc(N2C(=O)C3CCCN3C2c2ccc(Cl)cc2)c1 (stereo not drawn),-1.05%
11,Cc1cccc(OCC(=O)NCCNC(=O)c2cnccn2)c1,13.7%
12,O=C(CCl)NCCCN(C(=O)C(Cl)Cl)c1ccc([N+](=O)[O-])cc1,-27.2%
13,O=C(Nc1ccccc1)C1CC(=O)N(Cc2ccccc2)C1 (stereo not drawn),2.14%
14,CCN1CCN(c2nc3ccccc3nc2C(C#N)S(=O)(=O)c2ccc(C)cc2)CC1 (stereo not drawn),-18.5%
15,CN(Cc1nc(-c2ccccn2)no1)S(=O)(=O)c1ccccc1,11.4%
16,COc1ccc(-n2nnnc2SCC(=O)Nc2cc(OC)c([N+](=O)[O-])cc2C)cc1,42.4%
17,CC(=O)Nc1nnc(SCC(=O)NCCOc2ccccc2)s1,4.18%
18,Cc1ccc(N=C(N(C)C)P(=O)(N(C)C)N(C)C)cc1,17.4%
19,Cc1cccc(NC(=O)c2ccc(S(=O)(=O)N3CCCCC3)cc2)n1,-6.69%
20,COc1cccc(NC(=O)c2oc3ccc(S(=O)(=O)N4CCOCC4)cc3c2C)c1,3.95%
21,CCOc1cc(C(=O)N2CCC(CC3CC(c4ccc(Cl)cc4)=NO3)(C(=O)NCC3CCCCC3)CC2)cc(OCC)c1OCC (stereo not drawn),1.25%
22,N/C(=N\c1nc2ccccc2o1)NC(=O)c1ccccc1,10.5%
23,CCC(=O)N1CCc2cc(Br)cc(S(=O)(=O)N3CCCCC3CC)c21 (stereo not drawn),0.791%
24,Cc1cccc(OCC(=O)N(Cc2ccco2)C2CCS(=O)(=O)C2)c1 (stereo not drawn),-25.3%
